Results published in the supplement of paper PMC9446081.
Hit rate of the full screen: of about 39,000 compounds, about 220 (0.56%) showed activity. The list shows a part of the results.
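Further: static incubation at 37 °C against the wild-type strain, values averaged over two biological replicates.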

The compounds below were run on Escherichia coli K-12 BW25113 (assay: relative growth (OD600 normalised to plate interquartile mean) (fraction); higher = less growth inhibition, active = 0.2 or less). Settings: 50 µM; LB; incubation time: overnight (16-24 h).
In the case of `C[C@@H]1CN([C@@H](C)CO)C(=O)Cc2cc(NS(=O)(=O)c3ccc(F)cc3)ccc2O[C@H]1CN(C)C(=O)Nc1cccc2ccccc12`, the relative growth is reported as inactive: 1.01.
`C[C@@H]1CCCCO[C@H](CN(C)C(=O)NC2CCCCC2)[C@@H](C)CN([C@H](C)CO)C(=O)c2cc(NC(=O)Nc3ccc4c(c3)OCO4)ccc2O1` was tested, and the relative growth was inactive: 1.04.
For `C[C@@H]1CN([C@@H](C)CO)C(=O)Cc2cc(NC(=O)Nc3cccc4ccccc34)ccc2O[C@@H]1CN(C)Cc1ccc(Cl)c(Cl)c1`, the relative growth was inactive: 1.05.
With `Cc1noc(C)c1NC(=O)N(C)C[C@@H]1Oc2c(NS(=O)(=O)c3c(C)noc3C)cccc2C(=O)N([C@@H](C)CO)C[C@@H]1C` the relative growth was inactive: 0.884.
In the case of `C[C@H](CO)N1C[C@H](C)[C@H](CN(C)S(=O)(=O)c2ccc(-c3ccccc3)cc2)OCc2cn(nn2)CCCC1=O`, the relative growth is reported as inactive: 1.02.
For `COC(=O)NCCOc1nc(N(C)C)nc(N(C)C)n1`, the relative growth was inactive: 1.01.
In the case of `Cn1cnc(CCNC(=O)C[C@H]2CC[C@@H]3[C@H](COC[C@H](O)CN3C(=O)Nc3ccc(C(F)(F)F)cc3)O2)c1`, the relative growth is reported as inactive: 0.934.
In the case of `C[C@@H]1CN([C@H](C)CO)C(=O)Cc2cc(NS(=O)(=O)c3ccccc3)ccc2O[C@H]1CN(C)S(C)(=O)=O`, the relative growth is reported as inactive: 0.995.
In the case of `C[C@H]1CN([C@@H](C)CO)C(=O)c2cc(NC(=O)Cn3cnnn3)ccc2O[C@@H]1CN(C)CC1CCCCC1`, the relative growth is reported as inactive: 0.992.
For `CS(=O)(=O)N1CCCn2c(nnc2Cn2cccn2)C1`, the relative growth was inactive: 0.961.
For `C[C@H](CO)N1C[C@H](C)[C@@H](CN(C)C(=O)Nc2cccc3ccccc23)OCCCC[C@H](C)Oc2ccc(NC(=O)CCCN(C)C)cc2C1=O`, the relative growth was inactive: 0.994.
For `C[C@H](CO)N1C[C@H](C)[C@@H](CN(C)S(C)(=O)=O)Oc2ccc(NC(=O)Cc3ccccc3)cc2CC1=O`, the relative growth was inactive: 1.01.
For `CC(C)NC(=O)Nc1cccc2c1O[C@H](CN(C)S(=O)(=O)c1ccc(Cl)cc1)[C@H](C)CN([C@@H](C)CO)C2=O`, the relative growth was inactive: 0.978.
`COc1ccc(CN(C)C[C@@H]2Oc3c(NS(=O)(=O)c4c(C)noc4C)cccc3C(=O)N([C@@H](C)CO)C[C@@H]2C)cc1` was tested, and the relative growth was inactive: 1.
For `C[C@H](CO)N1C[C@H](C)[C@@H](CN(C)Cc2ccncc2)Oc2cc(C#CCN(C)C)ccc2S1(=O)=O`, the relative growth was inactive: 0.992.
For `C=CCOC(=O)[C@H]1[C@@H]2C(=O)O[C@@H](c3ccccc3)[C@@H](c3ccccc3)N2[C@@H](c2ccc(OCCOC(=O)[C@H]3C[C@H]4C(=O)N[C@@H](CCCCNC(C)=O)C(=O)N4[C@H]3c3cccc(OCCO)c3)cc2)[C@]12C(=O)Nc1ccc(I)cc12`, the relative growth was inactive: 1.07.
For `C=CCSc1n[nH]c2nc(=O)cc(N)n12`, the relative growth was inactive: 0.993.
For `CNC[C@@H]1Oc2cc(C#CCN(C)C)ccc2S(=O)(=O)N([C@H](C)CO)C[C@@H]1C`, the relative growth was inactive: 0.975.
In the case of `Cc1noc(C)c1S(=O)(=O)N(C)C[C@@H]1Oc2ccc(NS(=O)(=O)c3ccc(Cl)cc3)cc2CC(=O)N([C@H](C)CO)C[C@@H]1C`, the relative growth is reported as inactive: 1.01.
With `C[C@H](CO)N1C[C@H](C)[C@H](CN(C)S(=O)(=O)c2ccc(F)cc2)Oc2ccc(NS(C)(=O)=O)cc2C1=O` the relative growth was inactive: 1.
`C[C@@H]1CN([C@@H](C)CO)C(=O)c2cc(NS(=O)(=O)c3ccccc3)ccc2O[C@@H]1CN(C)S(=O)(=O)c1cccs1` was tested, and the relative growth was inactive: 0.99.
With `Nc1oncc1-c1ccc(Cl)cc1` the relative growth was inactive: 0.968.
With `CC(C)NC(=O)N(C)C[C@@H]1Oc2ccc(NS(=O)(=O)c3cccs3)cc2C(=O)N([C@@H](C)CO)C[C@H]1C` the relative growth was inactive: 0.979.
With `COCC#Cc1ccc2c(c1)O[C@H](CN(C)Cc1ccccc1F)[C@@H](C)CN([C@H](C)CO)S2(=O)=O` the relative growth was inactive: 1.06.
With `Cc1noc(C)c1NC(=O)Nc1ccc2c(c1)CC(=O)N([C@H](C)CO)C[C@H](C)[C@H](CN(C)S(=O)(=O)c1c(C)noc1C)O2` the relative growth was inactive: 1.02.
`COc1ccc(CN(C)C[C@@H]2Oc3ccc(NC(=O)Cn4cnnn4)cc3CC(=O)N([C@H](C)CO)C[C@@H]2C)cc1` was tested, and the relative growth was inactive: 1.02.
For `CC[C@H]1OC(=O)C[C@@H](O)[C@H](C)[C@@H](O[C@@H]2O[C@H](C)[C@@H](O)[C@H](N(C)C)[C@H]2O)[C@@H](CCN2C[C@H](C)C[C@H](C)C2)C[C@@H](C)C(=O)/C=C/C(C)=C/[C@@H]1CO[C@@H]1O[C@H](C)[C@@H](O)[C@@H](OC)[C@H]1OC`, the relative growth was inactive: 0.325.
`Cc1ccc2nc(CN)cn2c1` was tested, and the relative growth was inactive: 0.97.
For `C[C@@H]1CN([C@H](C)CO)C(=O)c2cc(N(C)C)ccc2O[C@@H](C)CCCCO[C@@H]1CN(C)C(=O)CCCN(C)C`, the relative growth was inactive: 0.978.
With `COc1ccc([Si](C)(C)[C@@H]2[C@@H](CCOC(=O)NCCCCCC(=O)NO)O[C@]3(C(=O)N(Cc4ccccc4)c4ccc(I)cc43)[C@H]2C)cc1` the relative growth was inactive: 1.02.
In the case of `OC[C@H]1O[C@@H](Oc2c[nH]c3ccccc23)[C@H](O)[C@@H](O)[C@@H]1O`, the relative growth is reported as inactive: 0.991.
For `NC1CCC(N[C@@H]2C[C@H]2c2ccccc2)CC1` (stereo partly drawn), the relative growth was inactive: 0.986.
In the case of `C[C@H]1CN([C@@H](C)CO)C(=O)Cc2cc(NC(=O)Nc3ccccc3)ccc2O[C@H]1CN(C)Cc1ccc(-c2ccccc2)cc1`, the relative growth is reported as inactive: 0.995.
In the case of `C[C@@H]1CN([C@H](C)CO)C(=O)c2cc(NC(=O)Nc3ccc(F)cc3)ccc2O[C@@H]1CN(C)C(=O)Nc1ccc(C(F)(F)F)cc1`, the relative growth is reported as inactive: 0.946.
`CO[C@@H]1CN(C)C(=O)c2cc(NS(=O)(=O)c3ccccc3C)ccc2OC[C@H](C)N(S(C)(=O)=O)C[C@H]1C` was tested, and the relative growth was inactive: 0.974.
`CCCN(CCC)S(=O)(=O)c1ccc(C(=O)N(c2cccc(SC)c2)[C@H]2OC(=O)c3ccccc32)cc1` was tested, and the relative growth was inactive: 0.993.
For `C[C@@H]1CN([C@H](C)CO)C(=O)Cc2cc(NC(=O)Cc3ccccc3)ccc2O[C@@H]1CN(C)Cc1ccc(-c2ccccc2)cc1`, the relative growth was inactive: 1.01.
In the case of `Cc1noc(C)c1S(=O)(=O)N(C)C[C@@H]1Oc2ccc(NC(=O)Cc3ccccc3)cc2CC(=O)N([C@@H](C)CO)C[C@H]1C`, the relative growth is reported as inactive: 1.01.
